{
  "source": "paper PMC5836133",
  "note": "This is one part of the list. At the low end of the ranking the order means little.",
  "data": [
    {"test_system": "T1, GST-NbGlk1(82-244)", "T1 sequence": "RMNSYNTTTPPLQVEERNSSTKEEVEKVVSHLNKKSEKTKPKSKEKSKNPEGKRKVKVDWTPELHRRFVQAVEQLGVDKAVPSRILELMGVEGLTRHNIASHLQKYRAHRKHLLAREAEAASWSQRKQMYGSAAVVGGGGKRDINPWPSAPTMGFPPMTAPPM", "experiment": "protein-binding microarray;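 also: rank-based score ranging −0.5 to +0.5 with E above 0.45 taken as significant binding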", "conditions": "NbGlk1 is a Golden2-like transcription factor of Nicotiana benthamiana; high values mean tight binding; most listed sequences are background and not binding sites; double strand, one strand shown", "units": {"binding signal": "E-score"}, "values": [
      {"sequence": "AGGGTTGC", "binding signal": -0.183},
      {"sequence": "ACCTTGAG", "binding signal": -0.16},
      {"sequence": "AACGACTC", "binding signal": 0.0785},
      {"sequence": "ACATTAAG", "binding signal": 0.0195},
      {"sequence": "AACTGAAG", "binding signal": -0.102},
      {"sequence": "ATTATCGG", "binding signal": 0.119},
      {"sequence": "AGAAATTC", "binding signal": 0.0929},
      {"sequence": "ACAGACGA", "binding signal": -0.0826},
      {"sequence": "AATGTGGA", "binding signal": 0.0848},
      {"sequence": "ATAGACAA", "binding signal": 0.0842},
      {"sequence": "ATAATCGA", "binding signal": 0.216},
      {"sequence": "AAACCACA", "binding signal": 0.0158},
      {"sequence": "ACTTAGAG", "binding signal": -0.158},
      {"sequence": "AACTAATA", "binding signal": 0.0382},
      {"sequence": "ATAGAGTG", "binding signal": -0.0258},
      {"sequence": "AGCGTCAC", "binding signal": -0.139},
      {"sequence": "ATGTTACA", "binding signal": 0.0988},
      {"sequence": "ATAGGATC", "binding signal": 0.255},
      {"sequence": "AGAACTAG", "binding signal": -0.0587},
      {"sequence": "ATCCTAAT", "binding signal": 0.248},
      {"sequence": "AATTAGTC", "binding signal": -0.0112},
      {"sequence": "AGACAGTA", "binding signal": 0.119},
      {"sequence": "CAACTTAA", "binding signal": -0.112},
      {"sequence": "AGGTAGGA", "binding signal": -0.0115},
      {"sequence": "AGACACAT", "binding signal": -0.0608},
      {"sequence": "AGGTTGGA", "binding signal": -0.0311},
      {"sequence": "ACCGTCGG", "binding signal": -0.142},
      {"sequence": "AAGCGGTG", "binding signal": -0.151},
      {"sequence": "AAGTCTAT", "binding signal": -0.0451},
      {"sequence": "ATGTAATG", "binding signal": 0.0627},
      {"sequence": "AAGAGCTT", "binding signal": -0.14},
      {"sequence": "ATGTCTAC", "binding signal": -0.0959},
      {"sequence": "AAGGAAAA", "binding signal": 0.0861},
      {"sequence": "ACAAATAA", "binding signal": 0.23},
      {"sequence": "ATTGTGAC", "binding signal": 0.192},
      {"sequence": "ACCTCTAC", "binding signal": -0.227},
      {"sequence": "ACCACTCT", "binding signal": -0.103},
      {"sequence": "AGCCCAGG", "binding signal": -0.332},
      {"sequence": "CAAAAGGC", "binding signal": -0.302},
      {"sequence": "AGCGCGCG", "binding signal": -0.0377},
      {"sequence": "AGCACCCA", "binding signal": -0.126},
      {"sequence": "AGGCTATG", "binding signal": -0.067},
      {"sequence": "ACGAAACT", "binding signal": 0.0808},
      {"sequence": "AAATACTG", "binding signal": 0.183},
      {"sequence": "ATAGGCAC", "binding signal": -0.0932},
      {"sequence": "AGTCGTAC", "binding signal": -0.159},
      {"sequence": "ACCGGTGC", "binding signal": -0.201},
      {"sequence": "AATATGGT", "binding signal": 0.17},
      {"sequence": "AGTATGTA", "binding signal": 0.00207},
      {"sequence": "ACCGGAAT", "binding signal": 0.243},
      {"sequence": "AGAGTCGA", "binding signal": 0.0673},
      {"sequence": "ACTGTGAC", "binding signal": -0.081},
      {"sequence": "ACGCCGTA", "binding signal": -0.186},
      {"sequence": "ACAAGACG", "binding signal": -0.2},
      {"sequence": "ATATGCAT", "binding signal": 0.219},
      {"sequence": "ATGAGAGC", "binding signal": -0.128},
      {"sequence": "AGAGGGGG", "binding signal": -0.275},
      {"sequence": "ACCATCGG", "binding signal": -0.28},
      {"sequence": "ACTACGAT", "binding signal": 0.19},
      {"sequence": "ACAAGAGC", "binding signal": -0.099},
      {"sequence": "CACTGTTA", "binding signal": 0.0362},
      {"sequence": "AGTCATCC", "binding signal": -0.195},
      {"sequence": "AGCTTAAA", "binding signal": -0.0158},
      {"sequence": "ACAACACC", "binding signal": -0.00204},
      {"sequence": "CAGCATTA", "binding signal": 0.0293},
      {"sequence": "ACGTTACT", "binding signal": -0.065},
      {"sequence": "AAAGTGTC", "binding signal": -0.000473},
      {"sequence": "ATTTCACC", "binding signal": 0.214},
      {"sequence": "AAGAGATG", "binding signal": 0.0111},
      {"sequence": "ACTATTGG", "binding signal": -0.151},
      {"sequence": "CACCAATA", "binding signal": 0.0686},
      {"sequence": "ATAATCTA", "binding signal": 0.334},
      {"sequence": "AACGTTCT", "binding signal": -0.139},
      {"sequence": "AACGGGCT", "binding signal": -0.222},
      {"sequence": "AGCTTCAA", "binding signal": -0.251},
      {"sequence": "ACCTTGCA", "binding signal": -0.0624},
      {"sequence": "AGTCTATA", "binding signal": -0.0952},
      {"sequence": "ACTTAGAT", "binding signal": 0.257},
      {"sequence": "ACAGGTAC", "binding signal": -0.0204},
      {"sequence": "ACGGACGC", "binding signal": -0.211},
      {"sequence": "AGGCGGGA", "binding signal": -0.12},
      {"sequence": "CAAAGTAA", "binding signal": 0.0718},
      {"sequence": "ACCGGCCT", "binding signal": -0.204},
      {"sequence": "AGAGCGCA", "binding signal": -0.123},
      {"sequence": "ATACAAAG", "binding signal": -0.0425},
      {"sequence": "AGCTTATC", "binding signal": -0.0676},
      {"sequence": "ACGTTGCA", "binding signal": 0.0856},
      {"sequence": "ATAACTTA", "binding signal": 0.0874},
      {"sequence": "AAGTGCAC", "binding signal": -0.126},
      {"sequence": "AAAAATCT", "binding signal": 0.45},
      {"sequence": "AGTCGCCA", "binding signal": -0.299},
      {"sequence": "AGACAAAC", "binding signal": -0.033},
      {"sequence": "AAGACGCG", "binding signal": -0.063},
      {"sequence": "ACGGCTCA", "binding signal": -0.206},
      {"sequence": "AAAGTTCC", "binding signal": -0.0954},
      {"sequence": "ACGGCATC", "binding signal": -0.0334},
      {"sequence": "ATGGAATA", "binding signal": 0.111},
      {"sequence": "ATTCCGGG", "binding signal": 0.182},
      {"sequence": "ACTATATC", "binding signal": 0.142},
      {"sequence": "AACACGTT", "binding signal": -0.194},
      {"sequence": "AAGATAAC", "binding signal": 0.0468},
      {"sequence": "AACTATCG", "binding signal": -0.0442},
      {"sequence": "CAACTCTG", "binding signal": -0.0558},
      {"sequence": "ATTAGAGA", "binding signal": 0.0726},
      {"sequence": "ACTCGCTC", "binding signal": -0.112},
      {"sequence": "AAAATACG", "binding signal": 0.286},
      {"sequence": "ACCGTTAA", "binding signal": 0.0829},
      {"sequence": "AAGACCGT", "binding signal": -0.0777},
      {"sequence": "CACCAGAC", "binding signal": -0.194}
    ]}
  ]
}
